Source: publication PMC4336329 (PLoS ONE, 2015)
The campaign covered roughly 310,000 compounds. About 14,000 (4.5%) showed an effect of 50% or more. The effect is printed as a negative number. The list shows a part of the results.

Molecular target: human ether-à-go-go-related gene (hERG) potassium channel (human, UniProt Q12809)
Test: primary screen, population patch clamp on CHO cells stably expressing hERG
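Note: peak tail current of the secondary pulse compared with the same well before compound.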

Sequence of human ether-à-go-go-related gene (hERG) potassium channel (Q12809 whole entry, looked up): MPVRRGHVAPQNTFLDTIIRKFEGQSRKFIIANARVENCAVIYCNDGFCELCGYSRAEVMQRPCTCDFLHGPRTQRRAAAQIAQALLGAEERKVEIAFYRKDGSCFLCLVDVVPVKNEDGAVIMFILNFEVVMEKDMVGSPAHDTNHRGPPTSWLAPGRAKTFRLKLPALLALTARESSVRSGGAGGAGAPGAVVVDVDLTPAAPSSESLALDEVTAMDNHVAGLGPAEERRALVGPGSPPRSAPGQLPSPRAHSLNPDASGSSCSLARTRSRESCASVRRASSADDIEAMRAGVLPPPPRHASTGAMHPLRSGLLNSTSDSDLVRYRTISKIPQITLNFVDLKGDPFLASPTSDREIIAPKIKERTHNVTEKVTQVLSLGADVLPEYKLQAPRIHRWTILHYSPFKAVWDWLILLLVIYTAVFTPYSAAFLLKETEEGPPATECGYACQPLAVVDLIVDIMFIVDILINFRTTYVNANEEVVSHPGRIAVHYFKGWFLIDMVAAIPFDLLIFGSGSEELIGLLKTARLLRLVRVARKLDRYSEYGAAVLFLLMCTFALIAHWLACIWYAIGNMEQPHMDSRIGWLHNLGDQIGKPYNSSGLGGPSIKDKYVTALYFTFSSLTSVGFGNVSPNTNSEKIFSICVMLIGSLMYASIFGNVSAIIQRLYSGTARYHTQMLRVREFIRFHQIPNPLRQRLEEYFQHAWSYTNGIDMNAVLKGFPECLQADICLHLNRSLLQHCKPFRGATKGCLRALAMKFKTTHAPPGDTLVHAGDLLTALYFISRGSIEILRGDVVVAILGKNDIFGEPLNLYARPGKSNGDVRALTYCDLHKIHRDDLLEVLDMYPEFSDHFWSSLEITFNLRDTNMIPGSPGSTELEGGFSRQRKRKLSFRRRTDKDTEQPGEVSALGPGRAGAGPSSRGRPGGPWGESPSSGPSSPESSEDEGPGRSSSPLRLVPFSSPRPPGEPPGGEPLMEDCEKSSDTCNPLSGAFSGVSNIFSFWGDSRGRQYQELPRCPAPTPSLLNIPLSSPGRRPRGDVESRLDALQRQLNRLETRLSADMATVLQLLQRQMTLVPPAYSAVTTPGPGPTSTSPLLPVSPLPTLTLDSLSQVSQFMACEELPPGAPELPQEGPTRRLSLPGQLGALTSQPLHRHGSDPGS

Structure (SMILES) | hERG current change (%, negative = inhibition) at 10uM
COc1cc(OC)cc(OC(=O)c2cccc(S(=O)(=O)N3CCN(C)CC3)c2)c1 | -14.1%
O=C(c1ccncc1)N1CCN(c2ccc3ccccc3n2)CC1 | -30.9%
COc1ccc(-c2nc(-c3ccc(C(=O)O)cc3)no2)cc1 | -1.08%
Cc1c(C(=O)N2CCN(c3ccc(F)cc3)CC2)sc2nc3n(c(=O)c12)CCC3 | -28.3%
CCCNC(=O)N1CCC(Cc2ccccc2)CC1 | 16.6%
CCOC(=O)c1ccccc1OC(=O)CS(=O)c1ccccc1[N+](=O)[O-] (stereo not shown) | 1.26%
COc1nc(OC)nc(N2CCC(NC(=O)C(Cc3ccc(C(C)C)cc3)NC(C)=O)CC2)n1 (stereo not shown) | 5.87%
Cc1nnc(SCc2cc([N+](=O)[O-])cc3c2OCOC3)n(N)c1=O | 15.5%
O=C(O)CCn1c(SCc2cccc3ccccc23)nc2ccccc21 | 3.01%
CC(C)(C)c1csc(Sc2ccc([N+](=O)[O-])cn2)n1 | 2.06%
COC(=O)c1ccc(C(=O)OC)c(NC(=S)N2CCN(C(=O)C3CCCO3)CC2)c1 (stereo not shown) | 1.43%
COc1ccc2c([N+](=O)[O-])c(N3CCCC3)[nH]c2c1 | 6.27%
COc1ccc(OCc2nc3ccc(S(=O)(=O)Nc4ccccc4Cl)cc3[nH]2)cc1 | -22.7%
CC(NC(=O)c1cc(S(=O)(=O)N(C)C)ccc1Cl)C1CC2CCC1C2 (stereo not shown) | 2.2%
Cn1nnnc1SCC1=C(C(=O)O)N2C(=O)C(NC(=O)Cn3nc(C(F)F)cc3C3CC3)C2SC1 (stereo not shown) | 17.3%
O=C(O)CCCn1ccc2cc(S(=O)(=O)N3CCCC3)ccc21 | 25.6%
COc1ccc(NC(=O)Cc2ccc(Cl)cc2)cc1S(=O)(=O)N1CCCCC1 | -17.3%
Cc1cc(C)n(CC(O)COc2ccc3ccccc3c2)n1 (stereo not shown) | 17.1%
Cc1ccc(Oc2ccc(-c3nc(N)nc(N)n3)cc2)cc1C | -4.61%
CC[C@@]12C(=O)N(c3ccc(OC)cc3)C(=O)N1[C@H](c1cccc(C)c1)[C@@H]1C(=O)N(Cc3ccccc3)C(=O)[C@@H]12 | -5.04%
Brc1ccc(-c2noc3c2-c2nc(C4CCCCC4)sc2CC3)cc1 | 15.7%
NC(=O)c1c(NC(=O)CCCC(=O)O)sc2c1CCCCCC2 | 8.98%

Structure (SMILES) | hERG current change (%, negative = inhibition) at 10uM
Cc1cccc[n+]1CC(=O)c1ccc(Cl)cc1.[Cl-] | 8.08%
OCCCNc1nc(-c2ccccc2)c2cc(Cl)ccc2n1 | 3.04%
Cc1ccc(SC(C)C(=O)Nc2ccncc2)cc1 (stereo not shown) | -6.85%
COc1cc(OC)c(NC(=O)CCNC(=O)Cn2cnc3ccccc3c2=O)cc1Cl | -0.133%
Cc1cc(C)nc(S/C=C/C(=O)c2ccc(F)cc2)n1 | 11.2%
CCn1c(-c2csc3c2CCC(C)C3)n[nH]c1=S (stereo not shown) | 1.2%
CC(NC(=O)CN1CCN(CC(=O)Nc2ccccc2Cl)CC1)c1ccc(Br)cc1 (stereo not shown) | -75.1%
O=C(CNCCc1ccccc1)Nc1ccc(C(=O)N2CCCCC2)cc1.O=C(O)C(=O)O | 5.77%
O=C(CSc1ccc2nnc(-c3ccc(F)cc3)n2n1)N1CCOCC1 | -18.6%
O=C(NCCCN1CCOCC1)c1sc2cc(Cl)ccc2c1Cl | -69.6%
O=C(Nc1ccc(Cl)c(Cl)c1)c1csc(-c2ccccc2)n1 | 6.39%
CCCN1CCN(S(=O)(=O)c2ccc3c(c2)OCCO3)CC1 | 3.25%
N#Cc1ccc(-c2cccnc2)nc1SCc1ccc(Cl)cc1Cl | 13.2%
COCCCNCCOc1ccccc1-c1ccccc1.O=C(O)C(=O)O | -9.67%
CCN(CC)C(=O)C1CCN(S(=O)(=O)c2ccc3oc4ccccc4c3c2)CC1 | 16.4%
NC(=O)COC(=O)CCCSc1nc2ccccc2s1 | 20%
Cc1ccc(NC2=C(Cl)C(=O)OC2OC(=O)c2ccccc2)c(C)c1 (stereo not shown) | 2.44%
CC(C)(C)CC(C)(C)NC(=O)c1ccc2snnc2c1 | -13.6%
COc1ccc(C(=O)Nc2c(C)ccc3nsnc23)cc1[N+](=O)[O-] | -3.17%
O=C(CSc1ncc(-c2ccc(F)cc2)n1Cc1ccco1)Nc1nccs1 | 3.33%
Cc1onc(-c2ccccc2Cl)c1C(=O)N1CCN(S(=O)(=O)c2ccc(F)c(F)c2)CC1 | 10.4%
CCCCCn1c(=O)[nH]c2cc(C(=O)O)ccc2c1=O | 21.4%

Structure (SMILES) | hERG current change (%, negative = inhibition) at 10uM
COc1ccccc1NS(=O)(=O)c1cc(-c2cc(C)no2)ccc1OC | -5.52%
Cc1ccnc(NC(=O)c2c(-c3ccccc3Cl)noc2C)c1 | 6.04%
Cc1ccc(NC(=O)Cn2ccc(=O)[nH]c2=O)cc1 | 28.4%
CCOc1ccc(CCNC(=O)c2ccc(C)c(NC3=NC4CS(=O)(=O)CC4S3)c2)cc1 (stereo not shown) | 24.4%
Cn1ncc2c(Nc3cccc(C(=O)O)c3)ncnc21 | 6.66%
COc1ccc(NC(=O)CSc2nnnn2C)cc1S(=O)(=O)N1CCCCC1 | 2.56%
Cc1ccccc1NC(=O)CSc1nc2ccccc2o1 | -3.95%
CN1CCN(c2ccc(S(=O)(=O)N3CCCCC3)cc2[N+](=O)[O-])CC1 | -48%
Cc1ccc(OCc2cc(C(=O)Nc3ccccc3)oc2C)cc1 | 8.38%
O=S(=O)(c1ccccc1)N(Cc1ccccn1)Cc1ccccn1 | 12.8%
O=C(NCCCN1CCCC1=O)Nc1cc(Cl)ccc1Cl | 10.8%
O=C(/C=C/c1ccc(Cl)cc1Cl)NCCN1CCOCC1 | -28.7%
Cc1ccc(CN2CC(C(=O)NCCC3=CCCCC3)CC2=O)cc1 (stereo not shown) | -19.6%
CCCCNS(=O)(=O)c1ccc2nc(-c3cccnc3)cc(C(=O)NCC(OC)OC)c2c1 | -2.03%
O=c1c2ccc(Cl)cc2nc(-c2cccc(C(F)(F)F)c2)n1O | -4.56%
COc1cccc(C(=O)C2CCCN(Cc3cn(C)nc3-c3ccccc3)C2)c1 (stereo not shown) | -68.8%
COc1cccc2cc(C(=O)Nc3ccccc3C)/c(=N/NS(=O)(=O)c3ccccc3)oc12 | 18.2%
CCC(CO)NCc1ccc(OCC(=O)Nc2cccc(C(F)(F)F)c2)c(OC)c1 (stereo not shown) | -43.6%
COc1ccc(S(=O)(=O)N2CCC(N3CCCC3)CC2)cc1 | 22.3%
CC/C(=N\NC(=O)Nc1ccccc1)c1ccccc1 | -9.51%
O=C(NCCCN1CCOCC1)c1ccc(-c2ccc(Cl)cc2)o1 | -55.1%
Cc1ccc(Cl)cc1Nc1nc(-c2sc(NC(=O)c3ccco3)nc2C)cs1 | 3.48%

Structure (SMILES) | hERG current change (%, negative = inhibition) at 10uM
CCCCn1c(C(C)NC(=O)COC)nc2ccccc21 (stereo not shown) | -23.5%
Cc1cccc(Oc2cnn(C(C)(C)C)c(=O)c2Cl)c1 | -10%
CCCCCCN(CCCCCC)C(=O)Cc1c(-c2ccc(F)cc2)[nH]c2ccccc12 | 20%
Cc1cc(-c2csc(N)n2)c(C)n1-c1ccccc1 | -9.56%
O=C(CNC(=O)c1ccco1)OCc1ccc(Br)cc1 | 2.8%
O=C(CN1C(=O)c2ccccc2C1=O)Nc1cccc(Cl)c1 | 4.39%
COc1ccc(-n2nnnc2-c2cnc3cc4c(cc3c2C)OCO4)cc1 | -5.1%
COc1ccc(-c2nn(-c3ccccc3)cc2/C=N/N=C(N)N)cc1OC | -27.8%
COc1c(O)cccc1/C=N/NC(=O)Cn1ccnc1C | 8.88%
Cc1ccc(NC(=O)COC(=O)c2cc(Cl)ccc2[N+](=O)[O-])c(C)c1 | 1.37%
Cc1ccc(CSc2ncnc3ccccc23)cc1 | 11.3%
CCn1c(C(=O)N2CCc3ccccc3C2)cc2oc3ccccc3c21 | 16%
CCCc1cc(=O)n2[nH]c(NCc3cccs3)nc2n1 | 11.5%
CCCCOC(=O)C1=C(C)Nc2ncnn2C1c1cc(OC)ccc1OC (stereo not shown) | -13.9%
COc1ccc(CNC(=O)c2nn(C)c3c2CS(=O)(=O)c2ccccc2-3)cc1 | -24.5%
COc1cc2nc(N(CCCN(C)C)C(=O)c3ccc(S(=O)(=O)N4CCc5ccccc5C4)cc3)sc2cc1OC.Cl | -9.41%
CN(CC(=O)Nc1ccccc1[N+](=O)[O-])Cc1ccc(Br)cc1 | 6.13%
COC(=O)c1ccccc1NC(=O)COC(=O)CO/N=C(\C)c1ccc2c(c1)OCO2 | 21%
c1coc(-c2nc3nc4ccccc4nc3n2CC2CCCO2)c1 (stereo not shown) | -21.1%
CCN(CCCNC(=O)CNC(=O)Cn1cnc2ccccc2c1=O)c1cccc(C)c1 | -4.04%
C=CCN=C1CC(C)(C)CC(=O)/C1=C(/O)CCC(=O)OC | 16.9%
CC1(C)CC(NC(=O)c2cccc(Cl)c2)CC(C)(C)N1 | 6.71%
